Reference: PubChem BioAssay AID1963576 (National Center for Advancing Translational Sciences (NCATS), 2024)
The campaign covered roughly 46,000 compounds. About 60 (0.1%) were called active. Inconclusive results (about 3%) are left out. Calls come from the whole dose curve; as a rule, active = well fitted inhibition curve with a large enough effect; inconclusive = small, poorly fitted or top-dose-only effect; inactive = no such curve, though single readings can be large or run the other way. The list shows a part of the results.

assay: Primary qHTS assay for Inhibitors of ovarian cancer metastasis using an organotypic tumor microenvironment (TME) model.; note: nearly all actives have a fitted effect of over 65% in size;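 for activity change, negative = inhibition: plate controls were DMSO wells for no effect and tomatine positive control wells for full effect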; conditions: SKOV3ip1-GFP adhesion/invasion on 3D omental model, fluorescence; series mostly up to 45.8 µM; activity change, negative = inhibition: at the top concentration
Method in brief: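 Primary human omental fibroblast/mesothelial 3D culture pre-formed 48 h. SKOV3ip1-GFP cells added with compounds (0.36-46 umol/L), incubated 2 h RT/16 h 37 C, fixed; GFP cells quantified at 488/509 nm.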

Activity change, negative = inhibition, inactive:
Cc1ccc(C(C)C)c(OCC(=O)Nc2nc3c(s2)CCCC3)c1 -9.95%
CCCCCOC(=O)c1ccc(Nc2nc(C(=O)OCC)nc3ccccc23)cc1 -8.76%
CC1=C(C(=O)Nc2ccc(C)c(C)c2)C2(CCCCCC2)OC1=O -0.244%
COc1ccc(-c2cnc(NCc3ccc(C)cc3)n2C)cc1 -3.18%
O=C(CSc1nc(-c2ccccc2)cc(=O)[nH]1)Nc1ccccc1F -8.96%
CCC(C)NC(=O)c1sc2nc(C)c(C(=O)Nc3ccc(C)cc3C)c(-c3ccc(Br)cc3)c2c1N (stereo unspecified) 13%
COc1cc(C2NC(=O)N(C)C3=C2C(=O)N(c2ccccc2)C3)ccc1O (stereo unspecified) 7.42%
COc1ccccc1NC(=O)CSc1oc(-c2cccs2)nc1S(=O)(=O)c1ccc(C)cc1 14.4%
CCN(CC)c1nc2c(S(=O)(=O)c3ccc(C)cc3)nnn2c2ccsc12 0.832%
COc1ccc(CCNC(=O)CSc2nc3ccccc3nc2Cc2ccc(C)cc2)cc1OC 1.68%
COc1ccccc1CNC(=O)c1nn(-c2ccc(C)cc2)c(=O)c2c1c1ccccc1n2C -0.955%
CCCSc1nnc2c(n1)OC(CC)N(C(C)=O)c1ccccc1-2 (stereo unspecified) 3.8%
O=C(CN1C(=O)COc2ccc(S(=O)(=O)N3CCCCC3)cc21)NCCc1ccc(Cl)cc1 -0.491%
Cc1ccccc1NC(=O)c1ccccc1NC(=O)c1ccccc1F -7.38%
COc1ccc(-c2nc3ccc(C(=O)NCc4ccccc4)cc3nc2-c2ccc(OC)cc2)cc1 1.45%
O=C(Nc1nnc(S(=O)(=O)N2CCCC2)s1)c1ccccc1Cl 1.06%
OC[C@H]1O[C@@H](O[C@H]2[C@@H](O)[C@@](O)(CO)O[C@@H]2CO)[C@H](O)[C@@H](O)[C@@H]1O -9.79%
CCn1ccc2cc(S(=O)(=O)N3CCC(C(=O)NCc4ccc(OC(C)C)cc4)CC3)ccc21 -1.64%
Cc1cccc(OCC(=O)NCc2ccc3c(c2)CCN3C(=O)c2ccccc2)c1 13.2%
CC1=C(c2ccc(C)c(C)c2)S(=O)(=O)N(Cc2ccc(C(=O)NCc3ccc(C)cc3)cc2)C1=O 6.51%
COc1ccc(Cc2nc3c4cnn(-c5ccccc5Br)c4ncn3n2)cc1 21.4%
COc1ccc(N2CCN(S(=O)(=O)c3c(C)nc4sc(C)cn4c3=O)CC2)cc1 4.37%
O=C(Cn1nc(C(F)(F)F)c2c1CCCC2)Nc1ccc(F)c(Cl)c1 -6.89%
CC(=O)Nc1ccc(NC(=O)Nc2sc3nc4n(c(=O)c3c2C)CCC(C)CC4)cc1 (stereo unspecified) 0.974%
COc1ccc(-c2ccc(=O)n(CC(=O)Nc3ccc(N(C)C)cc3)n2)cc1 1.41%
Cc1c(C(=O)NCc2ccc(F)cc2)sc2nc3n(c(=O)c12)CCC3 2.88%
CCOc1ccc(NC(=O)c2cc(CN3CCCC3)on2)cc1 1.77%
COc1ccc(/C=C/C(=O)Nc2ccc(Cl)c(Cl)c2)cc1OC -15.1%
O=C(Cn1c(=O)oc2cc(S(=O)(=O)NCc3ccccc3)ccc21)NCc1ccc(F)cc1 -0.432%
COc1ccc(OC)c(NC(=O)Cn2cc(C(=O)c3cccs3)c3ccccc32)c1 12.4%
Cc1ccc2nc(Nc3ccc(Br)cc3)nc(-c3ccccc3)c2c1 -6.1%
Cc1cccc(N(C)C(=O)C2CCN(S(=O)(=O)c3cccc4nonc34)CC2)c1 3.82%
COc1ccc(OC)c(NC(=O)c2ccc(-c3nc(COc4ccccc4)c(C)o3)cc2)c1 2.4%
Cc1c(NC(=O)c2cc3ccccc3o2)cccc1-c1nc2ccccc2o1 6.07%
CCCCc1nn2c(=O)cc(COC(=O)CNC(=O)c3ccccc3C)nc2s1 102%
CSc1ccc(C2c3c(oc4ccc(F)cc4c3=O)C(=O)N2c2ccc(C)cn2)cc1 (stereo unspecified) -2.02%
CCC(=O)N1CCc2cc(CNS(=O)(=O)c3ccc(Cl)s3)ccc21 -9.31%
Cc1ccc2nc(SC(Cc3cc(Cl)ccc3Cl)C(=O)O)[nH]c2c1 (stereo unspecified) 6.85%
COc1ccc(CNC(=O)c2cc3sccc3n2C)cc1 -0.732%
COc1cccc(NC(=O)c2sc3nc(C)c(C(=O)Nc4ccc(C)cc4C)c(-c4ccc(Br)cc4)c3c2N)c1 -18.9%
Cc1cc(Cl)ccc1NC(=O)C1CCN(S(=O)(=O)c2ccc3[nH]c(=O)ccc3c2)CC1 -12.4%
NC(=O)C1(N2CCCCC2)CCN(C(=O)Nc2ccc(Cl)c(Cl)c2)CC1 13.6%
Cc1ccc(C)c(N2CCN(C(=O)C3CCN(Cc4nc(-c5cccc(Cl)c5)oc4C)CC3)CC2)c1 0.732%
Cc1ccc(C2c3[nH]c4ccccc4c3CCN2C(=O)c2ccc(N(C)C)cc2)cc1 (stereo unspecified) -2.54%
COc1ccc(CN(C(=O)Nc2ccccc2)c2ccccn2)cc1OC 4.46%
CC(C)NC(=O)c1cnc2sc(N3CCCCCC3)nn2c1=O -4.57%
O=S(=O)(Nc1c(F)cccc1F)c1ccc2c(c1)OCCO2 -7.71%
Cc1ccc2oc(C(=O)Nc3c(C(=O)c4ccc(C)c(F)c4)oc4ccccc34)cc(=O)c2c1 0.867%
Cc1ccc(S(=O)(=O)N(Cc2nc(-c3ccc(Cl)cc3)no2)C2CCCCC2)cc1 -1.53%
COc1ccccc1N1CCN(CCC(=O)Nc2cccc(F)c2)CC1 6.9%
CCOCCCNC(=O)N1CCN(S(=O)(=O)c2ccc3c(ccn3C)c2)CC1 78.5%
COc1ccc(-c2noc(-c3ccc(N4CCOCC4)c([N+](=O)[O-])c3)n2)cc1OC 9.84%
O=C(Cn1c(=O)n(-c2ccccc2)c(=O)c2ccc(C(=O)NCc3ccc4c(c3)OCO4)cc21)Nc1ccc(Br)cc1F 12.5%
CCOc1ccc(NC(=O)CSc2oc(-c3cccs3)nc2S(=O)(=O)c2ccc(Cl)cc2)cc1 -6.54%
CCOC(=O)c1ccc(NS(=O)(=O)c2cc3c(cc2C)n(C)c(=O)c(=O)n3C)cc1 29.4%
Cn1c(=O)c2c(SCC(=O)NCC3CCCO3)nc(-c3ccccc3F)nc2n(C)c1=O (stereo unspecified) 0.697%
COc1cccc(/C=C(\C#N)c2nc3ccc(C)cc3[nH]2)c1 -15.3%
CCN(CCCNC(=O)c1cc2cc3cc(OC)ccc3nc2s1)c1ccccc1 1.05%
Cc1ccc(CNC(=O)CSc2nc3ccsc3c(=O)n2-c2ccc(C(=O)O)cc2)cc1 0.114%
CC1(C)C(=O)N(CC(=O)Nc2ccc(OC(F)(F)F)cc2)c2ccccc21 1.21%
Cc1cc(NC(=O)c2ccc(Cl)c(Cl)c2)ccc1-c1cc2ccccc2oc1=O -9.71%
COc1cccc(NC(=O)CCNS(=O)(=O)c2ccc3c(c2)CCCC(=O)N3)c1 6.73%
CCOC(=O)C1CCC(CN(Cc2c(Cl)cccc2Cl)S(=O)(=O)c2ccc(F)c(C)c2)CC1 (stereo unspecified) 3.03%
O=C(CSC1=Nc2ccccc2C2=NC(CCC(=O)NC3CCCCC3)C(=O)N12)Nc1cccc(Cl)c1 (stereo unspecified) -26%
Cc1cccc(-c2nc3c4ccccc4nc(NCCc4ccccc4)n3n2)c1 4.47%
O=S(=O)(NCc1nc2cccnc2n1Cc1ccccc1Cl)c1ccc2c(c1)CCCC2 3.31%
O=C(COCc1cc(-c2ccc(F)cc2)on1)Nc1cc(F)ccc1F -8.69%
CCOc1ccc(NS(=O)(=O)c2ccc3[nH]c4c(c3c2)CCCCC4)cc1 -25.6%
O=c1c(NCc2cccs2)nccn1-c1ccc(F)cc1 3.89%
Cc1nc2ccccc2n1CCc1nc2c3ccccc3nc(SCc3ccc(C#N)cc3)n2n1 -1.64%
COc1cccc(NC(=O)CN(CCc2ccccc2)S(=O)(=O)c2ccc(Cl)cc2)c1 -7.47%
CCOC(=O)CSc1nc2ccc(NC(=O)c3cccc(F)c3)cc2s1 -5.21%

outcome, inactive:
Cc1ccc2[nH]c(=O)c3cc(C(=O)N4CCN(c5ccccc5F)CC4)sc3c2c1
O=C(NCc1ccccc1)c1cccc(NC(=O)N2CCSc3ncccc32)c1
Cc1cccc(CSc2ncc(Cl)c(C(=O)Nc3sc4c(c3C#N)CCCC4)n2)c1
COC(=O)COc1ccc(Oc2nc(NC(C)(C)C)nc(N3CCOCC3)n2)nn1
CCOc1ccccc1CNC(=O)Cn1nc(C)c2nn(-c3ccc(Cl)cc3)c(C)c2c1=O
CCOc1ccc2oc(=O)cc(CN3CCN(C(=O)c4ccc(Cl)cc4)CC3)c2c1
CCc1cccc(CC)c1NC(=O)Cc1csc(C)n1
Cc1cc(Nc2cccc(F)c2)n2nc(-c3ccco3)nc2n1
Cc1cccc(CN2C(=O)c3ccccc3Sc3ccc(C(=O)NCCc4ccccc4)cc32)c1
COc1ccc(N2CCN(C(=O)c3cc4c(=O)n(Cc5cccs5)ccc4nc3C)CC2)cc1
CCOC(=O)c1cc(-c2ccccc2)nn1Cc1ccccc1
O=C(CCOc1ccccc1)N(Cc1cccnc1)c1nc2c(Cl)cccc2s1
Cc1ccc(CCNC(=O)CCSCc2ccccc2F)cc1
Cc1cccc(Cn2c(=O)n(CCc3ccccc3)c(=O)c3sc4ccccc4c32)c1
CCOC(=O)c1c(C)[nH]c(CCC(=O)Nc2ccc(N(CC)CC)cc2C)c1C
CCn1nnc2cc(C(=O)Nc3cccc(C(F)(F)F)c3)ccc21
CCOC(=O)N1CCc2c(sc3c2c(=O)n(Cc2ccccc2)c(=O)n3CC(=O)Nc2ccccc2F)C1
CCCCSCCCNC(=O)CN1C(=O)COc2ccc(S(=O)(=O)N3CCCC3)cc21
COc1ccc(CNc2nc(-c3ccc(OC)c(OC)c3)cc(C(F)(F)F)n2)cc1
CCOc1ccc(CNC(=O)c2cnc(SC)nc2CC)cc1
Oc1cccc(Nc2nc(-c3ccccc3)nc3ccccc23)c1
CCCSc1ncc(Cl)c(C(=O)Nc2ccc(CC)cc2)n1
COc1ccc(NC(=O)Cn2c(=O)n(-c3ccccc3)c(=O)c3ccc(C(=O)NCc4ccc5c(c4)OCO5)cc32)cc1
CCOC(=O)c1c(C)[nH]c(C)c1S(=O)(=O)N(C)CC(=O)Nc1cc(Cl)ccc1OC
